Consider 18 molecules from the supplement of paper PMC11369174, “Proteome-scale characterisation of motif-based interactome rewiring by disease mutations” (Molecular Systems Biology, 2024).

The list shows a part of the results. The data scatter; read single values as rough.

What all share (assay): mutation enrichment score (mutant vs wild-type peptide binding to bait); baits are purified protein domains named by gene / domain / UniProt id / residues; peptides come from disordered regions of human proteins; higher = mutation enhances binding relative to wild type
Test [1] has as its target T1, DOK1_PTB__Q99704_151_256.
T1 chain: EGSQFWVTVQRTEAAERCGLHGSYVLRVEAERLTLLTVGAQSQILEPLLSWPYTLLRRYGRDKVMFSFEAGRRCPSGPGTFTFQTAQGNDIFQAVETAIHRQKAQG
The following applies: number of wild-type / mutant comparisons summed (bounds the score): 5; paper call: no_effect; wild-type window: ….

Test [2] concerns the target T2, CSKP_Pkinase__O14936_1_340.
T2 chain: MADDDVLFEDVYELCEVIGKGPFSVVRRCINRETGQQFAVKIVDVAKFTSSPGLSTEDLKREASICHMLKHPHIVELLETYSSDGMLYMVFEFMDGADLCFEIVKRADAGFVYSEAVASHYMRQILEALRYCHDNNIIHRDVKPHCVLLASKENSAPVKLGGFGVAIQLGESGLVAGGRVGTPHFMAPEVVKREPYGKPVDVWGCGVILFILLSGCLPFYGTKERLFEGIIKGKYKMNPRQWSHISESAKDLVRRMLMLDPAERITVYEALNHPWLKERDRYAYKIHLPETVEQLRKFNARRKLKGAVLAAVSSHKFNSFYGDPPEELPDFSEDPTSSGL
The note with it: wild-type window: ….

Test [3] has as its target DMD_WW-EF__P11532_3055_3088. The note with it: paper call: no_effect, wild-type window: ….
Test [4] has as its target NEDD4_WW_2_P46934_765_803. The following applies: paper call: no_effect, wild-type window: ….
Test [5] concerns the target WWTR1_WW__Q9GZV5_122_160. The note with it: paper call: no_effect, wild-type window: ….
Test [6] addresses MAP1LC3A_ATG8__Q9H492_2_121. The note with it: wild-type window: ….
For test [7], the target named is MAP1LC3B_ATG8__Q9GZQ8_2_119. The note with it: wild-type window: ….
Test [8] deals with T3, EIF3B_RRM__P55884_172_274.
T3 chain: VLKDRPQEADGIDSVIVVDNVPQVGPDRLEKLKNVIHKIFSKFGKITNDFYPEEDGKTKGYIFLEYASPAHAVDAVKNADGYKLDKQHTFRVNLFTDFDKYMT
The note with it: number of wild-type / mutant comparisons summed (bounds the score): 6; paper call: no_effect; wild-type window: ….

For test [9], the target named is SMURF2_WW_3_Q9HAU4_298_330. The note with it: paper call: no_effect, wild-type window: ….
The target in test [10] is T4, EPHA3_Pkinase__P29320_606_947.
T4 chain: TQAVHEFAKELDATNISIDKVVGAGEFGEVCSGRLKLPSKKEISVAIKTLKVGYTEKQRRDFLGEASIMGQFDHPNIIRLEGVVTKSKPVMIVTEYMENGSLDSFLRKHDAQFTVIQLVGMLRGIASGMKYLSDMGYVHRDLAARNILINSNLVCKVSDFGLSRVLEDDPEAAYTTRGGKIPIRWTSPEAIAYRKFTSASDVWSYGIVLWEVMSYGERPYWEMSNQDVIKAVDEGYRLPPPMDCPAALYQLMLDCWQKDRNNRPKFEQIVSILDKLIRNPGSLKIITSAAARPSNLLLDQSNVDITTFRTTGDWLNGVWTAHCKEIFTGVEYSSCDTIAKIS
The note with it: number of wild-type / mutant comparisons summed (bounds the score): 6; paper call: no_effect; wild-type window: ….

The target in test [11] is T5, EPHB2_Pkinase__P29323_604_898.
T5 chain: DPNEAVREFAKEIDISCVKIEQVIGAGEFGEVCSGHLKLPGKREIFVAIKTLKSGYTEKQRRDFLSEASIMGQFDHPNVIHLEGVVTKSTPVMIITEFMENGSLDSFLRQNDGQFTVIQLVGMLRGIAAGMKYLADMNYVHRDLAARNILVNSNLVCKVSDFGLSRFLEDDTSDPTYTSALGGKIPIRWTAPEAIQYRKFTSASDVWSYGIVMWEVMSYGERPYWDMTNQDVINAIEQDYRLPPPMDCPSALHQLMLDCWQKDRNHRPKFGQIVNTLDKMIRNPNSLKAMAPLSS
The following applies: number of wild-type / mutant comparisons summed (bounds the score): 6; paper call: no_effect; wild-type window: ….

Test [12] addresses REPS1___Q96D71_226_314. The following applies: number of wild-type / mutant comparisons summed (bounds the score): 6; paper call: no_effect; wild-type window: ….
Test [13] deals with T6, GRAP2_SH3_2_O75791_274_329.
T6 chain: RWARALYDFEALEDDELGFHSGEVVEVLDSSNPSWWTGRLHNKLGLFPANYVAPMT
The note with it: number of wild-type / mutant comparisons summed (bounds the score): 18; paper call: no_effect; wild-type window: ….

In test [14] the target is Intersectin-1_SH3_2_Q15811_913_971. The following applies: number of wild-type / mutant comparisons summed (bounds the score): 12; paper call: no_effect; wild-type window: ….
The target of test [15] is USP7_MATH-TRAF__Q93009_53_206. The following applies: number of wild-type / mutant comparisons summed (bounds the score): 5; paper call: no_effect; wild-type window: ….
Sequence of USP7_MATH-TRAF__Q93009_53_206 (chain, as listed by the source): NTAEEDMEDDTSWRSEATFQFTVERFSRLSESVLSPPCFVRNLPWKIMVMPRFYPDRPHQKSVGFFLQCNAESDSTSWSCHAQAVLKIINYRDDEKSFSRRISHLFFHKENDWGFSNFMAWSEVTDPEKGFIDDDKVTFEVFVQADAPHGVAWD
Setting [16] is: number of wild-type / mutant comparisons summed (bounds the score): 12, paper call: no_effect.
[17] abbreviates: number of wild-type / mutant comparisons summed (bounds the score): 6.
Where [18] appears, read: number of wild-type / mutant comparisons summed (bounds the score): 6, paper call: no_effect.
[19] abbreviates: number of wild-type / mutant comparisons summed (bounds the score): 12, paper call: diminished.
Setting [20] is: number of wild-type / mutant comparisons summed (bounds the score): 12.
Setting [21] is: number of wild-type / mutant comparisons summed (bounds the score): 12, paper call: enhanced.

Sequence of NEDD4_WW_2_P46934_765_803 (chain, as listed by the source): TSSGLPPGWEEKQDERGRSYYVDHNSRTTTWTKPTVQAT
Sequence of WWTR1_WW__Q9GZV5_122_160 (chain, as listed by the source): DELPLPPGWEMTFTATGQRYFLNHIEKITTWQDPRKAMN

With IVMILTYKYLQKPMYEVQWKDVEEINGNNYVYIDPTQLPYD [V559D V559D], in test [1], the mutation enrichment score was determined as 3.9.
In the case of ELQPPAPSEDIWKKFELLPTAPLSPSRRSGLCSPSYVAVTP [P59A P59A], in test [2] (setting [16]), the mutation enrichment score came to 1.5.
For the molecule PEAPPLDRVFRTTWLSTECDFHPLPPSYRKFLFETQAADLA [S24F S24F], the mutation enrichment score was -3.3 in test [3] (setting [17]), -3.9 in [4] (setting [17]) and -3.8 in test [5] (setting [17]).
WVVRNWTDLENSIVSVERMQHYAWTPKEAPWRLPTCAAQPP [D1238H D1238H]: the mutation enrichment score in test [1] was found to be 3; in test [6] (setting [18]), 2.5; in test [7] (setting [18]), 1.3.
Regarding TLQWVVRNWTDLENSIVSVEGMQDYAWTPKEAPWRLPTCAA [R1235G R1235G], the mutation enrichment score is -5 in [1], -3.9 in [8], -10 in [6] (setting [19]) and -9 in test [7] (setting [19]).
Regarding TLQWVVRNWTDLENSIVSVEWMQDYAWTPKEAPWRLPTCAA [R1235W R1235W], the mutation enrichment score in test [1] is -5; in test [8], -4; in test [6] (setting [16]) it was -3.5; in test [7] (setting [16]), -4.2.
On to LQPCFYPDEDDFYFGGPDSTLPGEDIWKKFELLPTPPLSPS [P44L P44L], for which, in [2] (setting [16]), the mutation enrichment score is 2.4.
For DRGASLGPPPYLRTEFHQHQQQHQHTHQHTHQHTFTPFPHA [H529Q H529Q], the mutation enrichment score is 3.8 in test [3] (setting [17]), -2.9 in test [4] (setting [17]), 1 in test [9] (setting [17]) and 1 in [5] (setting [17]).
With YQCWDCQELFPSPELWVAHRTAQHLSATVAEPPVPPPLPPP [K160T K160T], the mutation enrichment score in test [2] (number of wild-type / mutant comparisons summed (bounds the score): 18, paper call: no_effect) is 4; in [10] it was -1.5; in test [11] it was -0.23; in [12], -0.021.
For the molecule TTIEGAEPISVVWFKDKGEIIRESDNIWISYSENIATLQFS [V8460I V8460I], the mutation enrichment score in [2] (setting [18]) came out at 3.5.
As for ADGAALEHSEEDGSIYEMADNPDIWVRSRPCARDAHRKEIC [D1216N D1216N], the mutation enrichment score in test [2] (setting [18]) stood at 1.
Turning to WMHYYVSMDALLGGSEIWRDTDFAHEAPAFLPWHRLFLLRW [I198T I198T], the mutation enrichment score in [1] is -4.9.
For TDLTMSTAACPPSYDRVTKPVVEKHEQEGKDEKAKGK [I1993V I1993V], the mutation enrichment score in test [3] (setting [20]) is 0; in test [13], -1.7; in [14], -2; in test [4] (setting [20]), -2.4; in [9] (setting [20]), -6; in test [5] (setting [20]), -2.2.
Regarding VFIFSGTFRKNLDPYEQWSDKEIWKVADEVGLRSVIEQFPG [Q1313K Q1313K], the mutation enrichment score in test [2] (setting [16]) was -0.27.
On to YCDEEENFYQQQQQSELQPPVPSEDIWKKFELLPTPPLSPS [A44V A44V], for which, in test [2] (setting [21]), the mutation enrichment score worked out at 6.
Consider YYVSMDALLGGSEIWRDIDFSHEAPAFLPWHRLFLLRWEQE [A201S A201S], for which the mutation enrichment score in [1] amounted to 5.
Regarding QHLDSPNIGVYEGDRVWLKKSPGDQHIAIRPATKTAFSKLQ [F565S F565S], the mutation enrichment score in test [2] (setting [21]) worked out at 8.
In the case of VGPAQPSHWKVLSSSGSEAAMPSVCFLVPPPNQEAQEAVTR [V988M V988M], the figures for the mutation enrichment score in [1] and in [15] were -4.6 and 1.2, respectively.
